The whole screen tested about 310,000 compounds, of which about 2,200 (0.71%) showed an effect of 50% or more. Effects have a minus sign here. The list shows a part of the results.
Target: human ether-à-go-go-related gene (hERG) potassium channel (human, UniProt Q12809)
Test: primary screen, population patch clamp on CHO cells stably expressing hERG

Sequence of human ether-à-go-go-related gene (hERG) potassium channel (Q12809 whole entry, looked up): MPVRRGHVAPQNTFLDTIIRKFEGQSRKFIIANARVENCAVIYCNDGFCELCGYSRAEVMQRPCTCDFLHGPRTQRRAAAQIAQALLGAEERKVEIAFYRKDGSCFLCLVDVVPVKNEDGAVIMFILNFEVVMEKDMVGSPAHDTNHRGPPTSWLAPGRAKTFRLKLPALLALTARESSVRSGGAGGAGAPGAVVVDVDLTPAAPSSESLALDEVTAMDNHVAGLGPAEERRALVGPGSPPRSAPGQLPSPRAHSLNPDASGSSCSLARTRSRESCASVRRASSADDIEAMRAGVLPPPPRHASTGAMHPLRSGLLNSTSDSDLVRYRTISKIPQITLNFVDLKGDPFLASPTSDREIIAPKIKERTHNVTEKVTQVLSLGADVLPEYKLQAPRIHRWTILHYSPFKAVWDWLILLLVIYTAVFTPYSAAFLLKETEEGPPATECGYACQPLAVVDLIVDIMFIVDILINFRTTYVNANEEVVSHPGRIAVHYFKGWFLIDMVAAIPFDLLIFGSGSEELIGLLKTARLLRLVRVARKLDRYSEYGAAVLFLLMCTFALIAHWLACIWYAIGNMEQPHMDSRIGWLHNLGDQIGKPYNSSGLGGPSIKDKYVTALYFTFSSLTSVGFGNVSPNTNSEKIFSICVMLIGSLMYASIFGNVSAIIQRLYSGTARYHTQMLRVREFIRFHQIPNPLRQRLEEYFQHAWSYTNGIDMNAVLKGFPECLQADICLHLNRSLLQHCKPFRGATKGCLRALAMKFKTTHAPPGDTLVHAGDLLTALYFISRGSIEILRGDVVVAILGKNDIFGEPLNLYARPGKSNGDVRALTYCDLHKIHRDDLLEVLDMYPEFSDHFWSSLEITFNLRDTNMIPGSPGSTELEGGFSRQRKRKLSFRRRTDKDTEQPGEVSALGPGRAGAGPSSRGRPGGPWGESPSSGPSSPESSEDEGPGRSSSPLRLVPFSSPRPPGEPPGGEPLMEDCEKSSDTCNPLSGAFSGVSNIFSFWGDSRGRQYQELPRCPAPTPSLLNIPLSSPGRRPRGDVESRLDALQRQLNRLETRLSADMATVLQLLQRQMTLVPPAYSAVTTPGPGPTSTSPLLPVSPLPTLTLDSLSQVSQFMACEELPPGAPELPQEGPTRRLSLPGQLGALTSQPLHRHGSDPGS

SMILES | hERG current change (%, negative = inhibition) at 1uM
O=[N+]([O-])c1cccc(NC(=S)N2CCN(S(=O)(=O)c3ccccc3)CC2)c1 | 1.52%
C[C@@H](NC(=O)Cn1ccc(NC(=O)OCc2ccccc2)nc1=O)c1cccc2ccccc12 | 15.9%
Cn1c(=O)c2c(ncn2CC(=O)N/N=C/C(Cl)=C/c2ccccc2)n(C)c1=O | 1.97%
O=C(COC(=O)c1ccc2c(c1)OCO2)Nc1ccccc1F | 9.81%
O=C(COC(=O)CCC1CCCC1)Nc1nc2c(F)c(F)c(F)cc2s1 | 15.4%
Clc1ccc(CNc2nc(CN3CCOCC3)nc3scc(-c4ccccc4)c23)cc1 | 6.2%
N#Cc1c(Cl)cccc1N1CCC(C(N)=O)CC1 | 8.16%
CCc1ccc(/C(C)=N/NC(=O)C(O)c2ccccc2)s1 (stereo not shown) | 12.3%
CCCn1c(=O)c2ccccc2n2c(SCc3cc(=O)oc4ccc5ccccc5c34)nnc12 | 6.93%
CCC(=O)c1ccc(OC(=O)c2cccs2)cc1 | 9.7%
COC(=O)CC1SC(=O)NC1=Nc1ccc(C)cc1 (stereo not shown) | 6.88%
Cn1cccc1CC(=O)NNC(=S)Nc1ccc(Cl)cc1 | 11.1%
COc1cc2[nH]c(=O)n(-c3cccc(Cl)c3)c(=O)c2cc1OC | 14.5%
CC1=NNC(=O)C1CCC(=O)N/N=C/c1c(Cl)cccc1Cl (stereo not shown) | 20.4%
O=C(Cc1c[nH]c2ccccc12)Nc1nccs1 | 8.5%
O=C(CN(C(=O)c1csnn1)c1ccccc1Cl)NC1CCCC1 | 4.73%
CCOC(=O)c1c(C)oc2ccc(NS(=O)(=O)c3ccc(C(=O)O)cc3)cc12 | 10.5%
O=C(COc1ccccc1)Nc1cccc(-c2nc3ccccc3[nH]2)c1 | -3.65%
Cc1ccc(S(=O)(=O)CCC(=O)OCC(=O)N2CC(=O)Nc3ccccc32)cc1 | -11.1%
Cc1ccc(C(=O)NCCNC(=O)c2ccc(C)nc2)cc1 | 10.3%
O=C(O)c1cc(NC(=O)c2ccc3c(c2)C(=O)N(Cc2cccnc2)C3=O)cc(C(=O)O)c1 | 4.4%
CCCCCCCCNc1ncnc2ccccc12 | -2.1%

SMILES | hERG current change (%, negative = inhibition) at 1uM
COc1ccc(N2CCN(C(CNC(=O)C(=O)NC3CC3)c3ccco3)CC2)cc1 (stereo not shown) | 12.4%
COc1ccc(C(=O)CN2C3=NCCCN3c3ccccc32)cc1OC | -6.85%
CCOc1ccc(NC(=O)COc2nsnc2N2CCCCC2)cc1 | 9.79%
Cn1nc(C(=O)NCCc2ccc(Cl)cc2)c2c1-c1ccccc1S(=O)(=O)C2 | 7.48%
COC(=O)c1ccc2nc(NC(=O)COC(=O)CSc3nc(C)cc(C)n3)sc2c1 | 19.7%
CN1CCN(c2ccc(-c3ccnn3C(=O)Nc3cccc(C(F)(F)F)c3)cc2)CC1 | -2.12%
Cc1cc(=O)nc2c3ccccc3n(CC(=O)NCCC3=CCCCC3)n12 | -0.581%
OC(COc1ccccc1)CN1CCCCCC1 (stereo not shown) | 9.1%
CCC(CO)N=C1CC(C)(C)CC(=O)/C1=C(/O)CCCN1C(=O)c2ccccc2C1=O (stereo not shown) | 7.66%
CC(C)Oc1ccc(C2NC(=O)c3ccccc3O2)cc1 (stereo not shown) | 21.7%
COc1ccc(NS(=O)(=O)c2cccc(C(=O)OCC(=O)Nc3cc(C)on3)c2)cc1 | 0.529%
O=C(O)c1cccn2c(=O)c3ccccc3nc12 | 14%
CCOc1ccc(N(C(C)C(=O)NCc2ccco2)S(C)(=O)=O)cc1 (stereo not shown) | 7.69%
COc1ccc(S(=O)(=O)N2CCC(C(=O)Oc3c(OC)cccc3OC)CC2)cc1OC | -2.36%
COc1cccc(C(=O)Nc2c3c(nn2-c2cccc(C)c2C)CS(=O)(=O)C3)c1OC | -3.59%
Cc1cc(C)cc(NC(=S)Nc2ccccn2)c1 | -1.9%
COc1ccccc1NC(=O)C12CCC(C)(C(=O)C1)C2(C)C (stereo not shown) | 11.2%
CN(C(=O)COC(=O)c1cccs1)c1c(N)n(Cc2ccccc2)c(=O)[nH]c1=O | -2.84%
CCc1cccc(NC(=O)CCc2nc(-c3cccs3)no2)c1 | 8.64%
CN1c2ccccc2Oc2c(c(=O)n(C)c(=O)n2C)C1c1cccc([N+](=O)[O-])c1 (stereo not shown) | -0.702%
O=C(COC(=O)C1CCN(S(=O)(=O)c2cccs2)CC1)Nc1ccc(F)cc1F | 5.54%
CS(=O)(=O)N(CC(=O)NCCSCc1ccccc1Cl)c1ccccc1F | 5.3%

SMILES | hERG current change (%, negative = inhibition) at 1uM
Cc1nnc(SC(C)C#N)n1-c1ccccc1 (stereo not shown) | 16%
CCCn1c(-c2cc(OC)c(OC)c(OC)c2)nc2c1c(=O)[nH]c(=O)n2Cc1ccccc1 | 5.36%
O=C(NCC(F)(F)F)Nc1nnc(C(F)(F)F)s1 | -4.14%
CC(C)CCN1CC(O)=C(c2nc(-c3ccc(Cl)cc3)cs2)C1=N | 17.2%
Cc1sc(NC(=O)c2ccco2)c(CN2CCN(c3ccccc3)CC2)c1C | 13%
COc1ccc(/C=N/NC(=O)C2c3ccccc3-c3ccccc32)cc1 | 6.1%
Clc1nc(-c2ccccc2)ncc1Oc1ccccc1 | 12.4%
O=C(COC(=O)c1ccc[n+]([O-])c1)Nc1ccc(Cl)cc1[N+](=O)[O-] | 6.55%
CCCCNC(=O)CCn1c(=O)c2ccccc2n(Cc2cc(C)ccc2C)c1=O | 4.35%
CCN1CCN(CC(O)COC(C)C)CC1.Cl (stereo not shown) | 7.28%
CCCCC1=CC2=C(c3ccco3)C(=O)C(C)(OC(=O)c3ccc(OC)cc3)C(=O)C2=CN1CCN1CCOCC1 (stereo not shown) | 7.1%
O=C(NCc1ccco1)c1c(F)c(F)c(F)c(C(=O)NCc2ccco2)c1F | 15.3%
Cn1nnnc1SCC(=O)NCC(=O)c1ccccc1 | 0.362%
Cc1ccccc1C(=O)N1CCN(c2ccc(N3CCOCC3)nn2)CC1 | 4.58%
O=C(O)COc1ccccc1/C=N/NC(=O)CSc1nnc(SCc2cccc3ccccc23)s1 | 13.6%
Cc1cccc(Nc2nc3c(S(=O)(=O)c4ccccc4)nnn3c3ccccc23)c1 | 3.41%
Cc1ccc(Nc2ncnc3ccccc23)cc1.Cl | 4.29%
COC(=O)[C@@H](NC(=O)NC(C)CCc1ccccc1)C(C)C (stereo partly shown) | 10.6%
O=C(Cn1cnc2ccccc2c1=O)N(Cc1ccco1)c1ccc(O)cc1 | 5.6%
COc1ccc(C(=O)Nc2ccncc2)cc1[N+](=O)[O-] | 18.2%
CC(C)[C@H](NC(=O)c1ccccc1)C(=O)OCC(=O)N1CCCc2ccccc21 | 5.03%
O=C(c1cccc(C(F)(F)F)c1)C1CCCN(C(=O)/C=C/c2cnc[nH]2)C1 (stereo not shown) | 1.75%

SMILES | hERG current change (%, negative = inhibition) at 1uM
CCOc1cc(N2CCOCC2)c(OCC)cc1NC(=O)c1ccco1 | -9.54%
Cc1cccc(C(=O)NCC(=O)NC2CCC(C)CC2)c1 (stereo not shown) | 1.64%
CC1(C)Cc2nc3oc4c(NCCCN5CCOCC5)ncnc4c3cc2CO1 | -2.97%
CC1CCN(S(=O)(=O)c2ccc3c(c2)N(C)C(=O)CC(=O)N3C)CC1 | 6.62%
Brc1cccc(-c2nnc3n2CCCCC3)c1 | 16%
Cc1ccc(C)c(OCC(=O)N(Cc2nnc(-c3ccccc3Cl)o2)C2CC2)c1 | -1.88%
COc1ccc(CCN2CC(O)=C(c3nc(C)cs3)C2=N)cc1OC | 9.2%
O=C(O)C1CCN(C(=O)NC2CCCCC2)CC1 | 6.94%
CSc1nnc(N2C(=O)C(O)=C(C(=O)c3ccco3)C2c2cccc(Cl)c2)s1 (stereo not shown) | 6.28%
CCC(=O)Nc1ccc(S(=O)(=O)Nc2cc(C)on2)cc1 | 12.1%
CCOC(=O)C(C)C(C)=O (stereo not shown) | 12.1%
COCCCC1CCN(C(=O)C2CCC(=O)N(C3CCCC3)C2)CC1 (stereo not shown) | 14%
O=C1C2CCCN2C(c2ccc(F)cc2)N1c1ccc(Cl)cc1 (stereo not shown) | 1.15%
NS(=O)(=O)c1ccc(N2CCNCC2)cc1 | 13%
CC1CCCCN1Cc1nc2c(c(=O)n(C)c(=O)n2C)n1CCc1ccccc1 (stereo not shown) | 7.8%
CC(C)C[C@H](NC(=O)c1nc[nH]c1C(=O)N1CCc2ccccc2C1)C(=O)OC(C)(C)C | 10.6%
NC(=O)Cc1ccc(Nc2nnc(-c3ccc(O)cc3)c3ccccc23)cc1 | 11.1%
Cc1ccc(C)c(N2CCN(C(=O)c3cn(C)c4ccc(S(=O)(=O)N(C)C)cc4c3=O)CC2)c1 | 4.91%
N#CC1=C2SCN(Cc3ccco3)CN2C(=O)CC1c1c(F)cccc1Cl (stereo not shown) | 12.6%
CCOc1ccccc1C(=O)Nc1cc(Cl)ccc1O | -3.48%
CCSc1c(-c2ccccc2)nc2c(C)cccc2c1C(=O)O | 11.6%
CSc1ccccc1NC(=O)CN(c1cc(C)cc(C)c1)S(C)(=O)=O | 3.07%

Reference: article PMC4336329 (PLoS ONE, 2015)
